Test results: PubChem BioAssay (EPA / NIEHS)
For some of these results: What follows is the remainder of the data, with few or none of the hits. This is a selection; strong and weak results do not stand in their true shares. Inconclusive results are not listed. A structure can be active in one record and inactive in another. Active and inactive are the calls of the source. Rule for the calls, unless noted: active = hit-call score of the fitted dose curve at least 0.9, where 1 is the maximum; inactive = score below 0.9.

Legend:
[1] = read-out: Interleukin-6 (IL6), IL6 (gene 3569); assay: BSK_CASM3C_IL6: BioMAP Diversity Plus: CASM3C Assay for Interleukin-6 (IL6) Biomarker Activity for (AID 2283040); settings: actives raise or lower the signal; primary human coronary artery smooth muscle cells
[2] = read-out: Interferon-gamma inducible Protein 10 (IP10), CXCL10 (gene 3627); assay: BSK_hDFCGF_IP10: BioMAP Diversity Plus: hDFCGF Assay for Interferon-gamma inducible Protein 10 (IP10) Biomarker Activity (AID 2283053); settings: actives raise or lower the signal; primary human foreskin fibroblasts
Procedure, shortened: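 IP-10 levels, quantified by ELISA, are taken from human foreskin fibroblast cultures 24 h after chemical treatment, with DMSO serving as negative control and baseline for bidirectional analysis.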

[3] = read-out: Collagen III, COL3A1 (gene 1281); assay: BSK_hDFCGF_CollagenIII: BioMAP Diversity Plus: hDFCGF Assay for Collagen III Biomarker Activity (AID 2283056); settings: actives raise or lower the signal; primary human foreskin fibroblasts
Procedure, shortened: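 Response relative to DMSO, fitted in both directions, reflects ELISA-measured collagen III in human primary skin fibroblasts 24 h after compound addition.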

[4] = read-out: Transforming growth factor beta 1 (TGFb1), TGFB1 (gene 7040); assay: BSK_KF3CT_TGFb1: BioMAP Diversity Plus: KF3CT Assay for Transforming growth factor beta 1 (TGFb1) Biomarker Activity (AID 2283072); settings: actives raise or lower the signal; primary human keratinocytes with fibroblasts
Procedure, shortened: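 Signal changes in either direction, relative to DMSO, define activity here. TGF-b1 is read by ELISA from a human keratinocyte-fibroblast co-culture 24 h post-dose.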

[5] = BSK_LPS_SRB: Viability Assessment in the BioMAP Diversity Plus: LPS Assay (AID 2283079); settings: primary human HUVEC with PBMC;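 note: total protein by sulforhodamine B absorbance as a cytotoxicity measure; measured one day after compound addition; fitted in both directions against DMSO so loss or gain of signal counts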
Procedure, shortened: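 Cytotoxicity endpoint in human endothelial–PBMC co-culture: 24 h exposure, then SRB (0.1%) staining, 560 nm read.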

[6] = molecular target: Glucocorticoid receptor (Homo sapiens) (UniProt P04150); assay: NVS_NR_hGR: NovaScreen (NVS) Nuclear Receptor Binding Assay for human Glucocorticoid Receptor (GR) (AID 2283363; active = hit-call score of the fitted dose curve at least 0.9, where 1 is the maximum;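 note: activity is loss of specific radioligand binding signal relative to DMSO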)
Procedure, shortened: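 Cell-free radioligand binding with extracted receptor protein, read by filter-based scintillation counting 16 hours after dosing. Loss of specific signal versus DMSO baseline was scored. Primary screen ran in duplicate at 25 uM; actives were followed up in concentration series.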

[7] = CCTE_Simmons_MITO_basal_resp_rate: CCTE's HepG2 Seahorse XF Respirometric Screening Assay at Basal Respiratory State, Simmons Lab (AID 2284001); settings: actives raise or lower the signal
Procedure, shortened: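 HepG2 cells were given test chemicals at 7 concentrations, 125 nM to 100 uM final, and oxygen consumption rate was read every 6 min (3 min mix, 3 min measure) over 72 min. Basal-phase OCR was fitted bidirectionally against DMSO.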

[8] = BSK_BE3C_SRB: Viability Assessment in the BioMAP Diversity Plus: BE3C Assay (AID 2283028); settings: primary human bronchial epithelial cells;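 note: fitted both ways so AC50 may mark signal gain or loss versus DMSO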
Procedure, shortened: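 SRB total-protein staining (0.1%, after TCA fixation) of chemically dosed human bronchial epithelial primary cells at 24 h; DMSO serves as the negative control for bidirectional curve fitting.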

[9] = CCTE_Shafer_MEA_dev_network_spike_peak: CCTE's Neural Network Formation Assay for Mean Number of Electrodes in Network Spike, Shafer Lab (AID 2284049);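 note: fitted for loss of signal meaning fewer electrodes in network spikes than DMSO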
Procedure, shortened: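 Continuous 12-day exposure of rat cortical cultures, starting at plating, on MEA plates. Endpoint: electrodes participating in network-spike peaks, AUC across DIV 5–12, DMSO as negative control.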

[10] = read-out: Macrophage colony-stimulating factor (MCSF), CSF1 (gene 1435); assay: BSK_CASM3C_MCSF: BioMAP Diversity Plus: CASM3C Assay for Macrophage colony-stimulating factor (MCSF) Biomarker Activity (AID 2283044); settings: actives raise or lower the signal; primary human coronary artery smooth muscle cells;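 note: M-CSF protein amount quantified by ELISA after 24 h exposure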
[11] = read-out: Plasminogen activator inhibitor-1 (PAI1), SERPINE1 (gene 5054); assay: BSK_BE3C_PAI1: BioMAP Diversity Plus: BE3C Assay for Plasminogen activator inhibitor-1 (PAI1) Biomarker Activity (AID 2283037); settings: actives raise or lower the signal; primary human bronchial epithelial cells
Procedure, shortened: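 PAI-1 biomarker levels in treated human bronchial epithelial cells are determined by ELISA at 24 h. Both increases and decreases relative to DMSO are fitted.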

[12] = read-out: ABC Transporter (ABCB11), ABCB11 (gene 8647); assay: LTEA_HepaRG_ABCB11: Life Technologies and Expression Analysis (LTEA) Assay for ABC Transporter (ABCB11) using HepaRG (AID 2283463); settings: actives raise or lower the signal; mRNA level, 48 h
Procedure, shortened: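 Differentiated human HepaRG cells were exposed for 48 h in serum-free induction medium to eight half-log concentrations up to 100 uM in 0.5% DMSO. ABCB11 mRNA was quantified by qRT-PCR, normalized to ACTB, GAPDH and POLR2A, and fitted bidirectionally versus DMSO.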

[13] = read-out: Urokinase-type plasminogen activator receptor (uPAR), PLAUR (gene 5329); assay: BSK_BE3C_uPAR: BioMAP Diversity Plus: BE3C Assay for Urokinase-type plasminogen activator receptor (uPAR) Biomarker Activity (AID 2283039); settings: actives raise or lower the signal; primary human bronchial epithelial cells;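 note: uPAR protein level measured by ELISA on the cells; cells exposed to compound for one day before measurement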
Procedure, shortened: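 A uPAR ELISA serves as the readout, taken 24 h after treating primary human bronchial epithelial cells. Responses in either direction are fitted against DMSO, which defines baseline activity.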

[14] = read-out: Vascular endothelial growth factor receptor 2 (Homo sapiens) (UniProt P35968); assay: BSK_4H_VEGFRII: BioMAP Diversity Plus: 4H Assay for Vascular endothelial growth factor receptor 2 (VEGFR2) Biomarker Activity (AID 2283031); settings: actives raise or lower the signal; primary human endothelial cells (HUVEC);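 note: cell-surface VEGFR2 protein level quantified by ELISA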
Procedure, shortened: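 In this multiplexed HUVEC system, biomarker ELISA was performed after 24 h chemical exposure. Parallel SRB staining (TCA fixation, 560 nm) tracked cytotoxicity; DMSO served as baseline.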

[15] = read-out: Transforming growth factor beta 1 (TGFb1), TGFB1 (gene 7040); assay: BSK_BE3C_TGFb1: BioMAP Diversity Plus: BE3C Assay for Transforming growth factor beta 1 (TGFb1) Biomarker Activity (AID 2283036); settings: actives raise or lower the signal; primary human bronchial epithelial cells
Procedure, shortened: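 In this human primary bronchial epithelial system, an ELISA quantified TGF-b1 one day after dosing. Endpoint changes in either direction were fitted relative to DMSO.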

[16] = read-out: Monokine induced gamma interferon (MIG), CXCL9 (gene 4283); assay: BSK_hDFCGF_MIG: BioMAP Diversity Plus: hDFCGF Assay for Monokine induced gamma interferon (MIG) Biomarker Activity (AID 2283063); settings: actives raise or lower the signal; primary human foreskin fibroblasts
Procedure, shortened: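 Endpoint derived by bidirectional fitting relative to DMSO; MIG quantified via ELISA in primary human foreskin fibroblasts harvested 24 h after dosing.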

CD38, CD38 (gene 952) = assay: BSK_SAg_CD38: BioMAP Diversity Plus: SAg Assay for CD38 Biomarker Activity (AID 2283087); settings: actives raise or lower the signal; primary human HUVEC with PBMC
Procedure, shortened: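 Fluorescence ELISA of cell-surface CD38 served as the read-out, with either increase or decrease fitted against DMSO controls. Cells were a human umbilical vein endothelium plus PBMC co-culture under SEB/TSST-1 stimulation, measured 24 h after dosing.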

[17] = read-out: Insulin-like growth factor-binding protein 1 (IGFBP1), IGFBP1 (gene 3484); assay: LTEA_HepaRG_IGFBP1: Life Technologies and Expression Analysis (LTEA) Assay for Insulin-like growth factor-binding protein 1 (IGFBP1) using HepaRG (AID 2283508); settings: actives raise or lower the signal; mRNA level, 48 h
Procedure, shortened: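 HepaRG, 48 h, 8 conc. (max 100 uM, half-log), duplicates, 0.5% DMSO. Readout: TaqMan qRT-PCR, ACTB/GAPDH/POLR2A normalisation. Fit: bidirectional vs DMSO.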

[18] = read-out: Monocyte Chemoattractant Protein-1 (MCP1), CCL2 (gene 6347); assay: BSK_LPS_MCP1: BioMAP Diversity Plus: LPS Assay for Monocyte Chemoattractant Protein-1 (MCP1) Biomarker Activity (AID 2283081); settings: actives raise or lower the signal; primary human HUVEC with PBMC
Procedure, shortened: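 Values derive from bidirectional fitting against DMSO of ELISA-measured MCP-1 in a human primary endothelial and mononuclear cell co-culture, 24 h after chemical addition under LPS activation.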

[19] = read-out: E-selectin (Homo sapiens) (UniProt P16581); assay: BSK_SAg_Eselectin: BioMAP Diversity Plus: SAg Assay for Eselectin Biomarker Activity (AID 2283091); settings: actives raise or lower the signal; primary human HUVEC with PBMC
Procedure, shortened: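 Endpoint values derive from bidirectional fitting relative to DMSO, using ELISA-measured E-selectin in a human vascular co-culture (umbilical vein endothelium plus PBMC) sampled 24 h after dosing.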

[20] = molecular target: human CYP2C9, CYP2C9 (gene 1559) (UniProt P11712); assay: NVS_ADME_hCYP2C9: NovaScreen (NVS) CYP450-related Enzyme Activity (ADME) Assay for human CYP2C9 (AID 2283108; active = hit-call score of the fitted dose curve at least 0.9, where 1 is the maximum)
Procedure, shortened: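 Cell-free assay of recombinant human CYP2C9 produced in Sf9 cells, with enzyme activity read by fluorescence intensity 0.75 h after compound addition. Loss of signal versus an acetonitrile negative control indicates inhibition. Primary screen used 10 uM in duplicate; actives were retested in concentration series.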

[21] = molecular target: human Matrix Metalloproteinase-3 (MMP3), MMP3 (gene 4314) (UniProt P08254); assay: NVS_ENZ_hMMP3: NovaScreen (NVS) Enzymatic Assay for human Matrix Metalloproteinase-3 (MMP3) (AID 2283185; active = hit-call score of the fitted dose curve at least 0.9, where 1 is the maximum)
[22] = molecular target: Retinoic acid receptor RXR-alpha (Homo sapiens) (UniProt P19793); assay: OT_NURR1_NURR1RXRa_0480: Odyssey Thera (OT) 8-hour HEK293T Protein Complementation Assay for Nurr1/retinoid X receptor (RXR) (AID 2283385; active = hit-call score of the fitted dose curve at least 0.9, where 1 is the maximum)
Procedure, shortened: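 Compounds are applied to HEK293T cells carrying Nurr1 and RXRα linked to reporter fragments. After 8 h, fluorescence intensity reports heterodimer formation, with DMSO as baseline.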

[23] = read-out: Glutamate-cysteine ligase catalytic (GCLC), GCLC (gene 2729); assay: LTEA_HepaRG_GCLC: Life Technologies and Expression Analysis (LTEA) Assay for Glutamate-cysteine ligase catalytic (GCLC) using HepaRG (AID 2283498); settings: actives raise or lower the signal; mRNA level, 48 h
Procedure, shortened: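 Differentiated human HepaRG cells, plated 48 h then switched to serum-free induction medium, were exposed in duplicate for 48 h to 8 half-log concentrations topping at 100 uM in 0.5% DMSO. GCLC mRNA was quantified by qRT-PCR against ACTB, GAPDH and POLR2A.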

[24] = TOX21_p53_BLA_p3_viability: Viability Assessment in the Tox21 HCT-116 p53 Agonism Beta-lactamase Assay, Phase 3 (AID 2283593; active = hit-call score of the fitted dose curve at least 0.9, where 1 is the maximum;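 note: cells exposed to compound for 16 h before reading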)
Procedure, shortened: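 HCT-116 cells (4000/well) rested 5 h at 37C, then got DMSO compounds by pin tool (217-fold dilution) for 16 h at 37C, 5% CO2. After the bla read, CellTiter-Glo was added and luminescence read at 30 min, room temperature.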

Measured: AC50

Sequence of UniProt P19793 (P19793 whole entry, looked up, the tested form may be a part): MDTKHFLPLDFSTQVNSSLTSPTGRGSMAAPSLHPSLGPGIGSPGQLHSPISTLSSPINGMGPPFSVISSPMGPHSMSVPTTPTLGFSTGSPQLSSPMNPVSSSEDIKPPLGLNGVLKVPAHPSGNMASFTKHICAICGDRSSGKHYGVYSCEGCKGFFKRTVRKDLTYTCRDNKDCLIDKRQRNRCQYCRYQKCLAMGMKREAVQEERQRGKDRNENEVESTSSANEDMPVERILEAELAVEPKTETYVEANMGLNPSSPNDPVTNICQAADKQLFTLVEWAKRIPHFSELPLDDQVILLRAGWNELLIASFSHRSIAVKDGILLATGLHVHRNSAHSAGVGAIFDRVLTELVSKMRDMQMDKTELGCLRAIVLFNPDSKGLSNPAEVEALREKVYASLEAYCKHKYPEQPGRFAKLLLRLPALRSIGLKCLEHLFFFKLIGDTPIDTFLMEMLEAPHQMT
Sequence of UniProt P16581 (P16581 whole entry, looked up): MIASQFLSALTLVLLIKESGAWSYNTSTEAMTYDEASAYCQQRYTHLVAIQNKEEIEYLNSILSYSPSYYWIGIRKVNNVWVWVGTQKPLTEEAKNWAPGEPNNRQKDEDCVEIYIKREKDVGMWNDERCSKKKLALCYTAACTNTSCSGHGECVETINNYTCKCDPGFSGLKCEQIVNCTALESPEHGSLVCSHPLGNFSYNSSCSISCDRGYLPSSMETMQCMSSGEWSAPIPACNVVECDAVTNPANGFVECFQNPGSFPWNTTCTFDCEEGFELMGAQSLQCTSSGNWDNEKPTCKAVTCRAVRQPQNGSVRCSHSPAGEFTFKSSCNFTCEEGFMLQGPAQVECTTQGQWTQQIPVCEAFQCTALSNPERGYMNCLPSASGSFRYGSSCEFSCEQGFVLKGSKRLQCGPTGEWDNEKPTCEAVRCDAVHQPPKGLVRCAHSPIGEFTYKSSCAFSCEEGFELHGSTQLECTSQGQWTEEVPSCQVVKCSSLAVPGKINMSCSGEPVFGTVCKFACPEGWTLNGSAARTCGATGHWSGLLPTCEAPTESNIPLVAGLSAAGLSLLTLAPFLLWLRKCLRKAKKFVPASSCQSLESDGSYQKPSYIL
Sequence of UniProt P04150 (P04150 whole entry, looked up): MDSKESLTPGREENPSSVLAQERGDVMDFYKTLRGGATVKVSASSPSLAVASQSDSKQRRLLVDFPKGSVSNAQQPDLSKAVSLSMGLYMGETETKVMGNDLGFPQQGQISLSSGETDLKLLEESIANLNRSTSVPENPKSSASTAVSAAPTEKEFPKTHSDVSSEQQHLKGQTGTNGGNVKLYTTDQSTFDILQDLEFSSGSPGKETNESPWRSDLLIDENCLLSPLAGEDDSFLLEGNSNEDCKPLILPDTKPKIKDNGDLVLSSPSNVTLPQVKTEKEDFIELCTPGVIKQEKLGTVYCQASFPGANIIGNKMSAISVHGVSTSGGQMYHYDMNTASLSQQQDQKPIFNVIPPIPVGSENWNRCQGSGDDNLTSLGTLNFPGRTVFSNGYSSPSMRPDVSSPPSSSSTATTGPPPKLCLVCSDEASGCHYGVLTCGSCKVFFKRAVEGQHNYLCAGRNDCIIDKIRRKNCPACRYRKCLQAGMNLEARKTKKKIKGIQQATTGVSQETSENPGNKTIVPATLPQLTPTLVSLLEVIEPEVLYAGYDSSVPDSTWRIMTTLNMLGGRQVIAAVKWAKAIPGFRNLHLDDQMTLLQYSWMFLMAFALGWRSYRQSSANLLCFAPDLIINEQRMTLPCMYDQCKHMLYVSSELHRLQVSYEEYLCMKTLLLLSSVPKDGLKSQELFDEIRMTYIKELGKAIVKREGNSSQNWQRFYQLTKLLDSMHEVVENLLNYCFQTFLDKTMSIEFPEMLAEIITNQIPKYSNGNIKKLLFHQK
Sequence of UniProt P11712 (P11712 whole entry, looked up): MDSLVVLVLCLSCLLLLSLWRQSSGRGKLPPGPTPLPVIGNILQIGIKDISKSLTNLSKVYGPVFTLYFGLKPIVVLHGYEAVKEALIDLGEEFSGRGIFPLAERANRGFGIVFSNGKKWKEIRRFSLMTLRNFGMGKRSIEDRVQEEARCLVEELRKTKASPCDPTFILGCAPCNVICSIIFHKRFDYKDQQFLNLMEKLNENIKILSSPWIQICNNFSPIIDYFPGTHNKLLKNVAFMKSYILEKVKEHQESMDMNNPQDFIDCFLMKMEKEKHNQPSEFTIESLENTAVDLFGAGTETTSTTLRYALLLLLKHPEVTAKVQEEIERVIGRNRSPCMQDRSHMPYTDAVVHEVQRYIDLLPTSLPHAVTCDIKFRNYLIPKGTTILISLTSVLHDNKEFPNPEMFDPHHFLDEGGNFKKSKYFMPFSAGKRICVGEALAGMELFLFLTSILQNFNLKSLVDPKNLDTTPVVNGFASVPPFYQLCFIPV
Sequence of UniProt P08254 (P08254 whole entry, looked up): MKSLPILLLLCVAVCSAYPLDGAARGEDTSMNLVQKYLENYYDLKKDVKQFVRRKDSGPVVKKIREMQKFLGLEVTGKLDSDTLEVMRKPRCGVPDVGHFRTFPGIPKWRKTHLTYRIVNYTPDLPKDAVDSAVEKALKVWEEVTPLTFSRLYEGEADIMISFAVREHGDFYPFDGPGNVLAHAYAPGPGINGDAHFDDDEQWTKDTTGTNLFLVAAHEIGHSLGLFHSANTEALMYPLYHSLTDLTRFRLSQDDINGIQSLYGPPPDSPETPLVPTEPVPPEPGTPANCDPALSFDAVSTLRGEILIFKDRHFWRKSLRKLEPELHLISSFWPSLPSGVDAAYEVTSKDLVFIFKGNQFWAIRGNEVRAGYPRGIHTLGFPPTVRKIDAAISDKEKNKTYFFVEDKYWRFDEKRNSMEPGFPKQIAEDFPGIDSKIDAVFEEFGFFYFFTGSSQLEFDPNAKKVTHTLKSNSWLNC

CCC(=O)O[C@H]1CC[C@H]2[C@@H]3CCC4=CC(=O)CC[C@]4(C)[C@H]3CC[C@]12C
active: [2] 28.6 µM | [3] 31.9 µM | [4] 33.3 µM | [5] 28.6 µM | [6] 0.747 µM | [7] 50 µM
inactive: [1]

Cc1c(F)c(F)c(COC(=O)C2C(/C=C(\Cl)C(F)(F)F)C2(C)C)c(F)c1F (stereo not drawn)
active: [8] 12.4 µM | [9] 3.38 µM

CN1CSC(=S)N(C)C1
inactive: [10]

CCC(C)(NC(=O)c1cc(Cl)c(C)c(Cl)c1)C(=O)CCl (stereo not drawn)
active: [11] 20 µM | [12] 66.5 µM

O=[N+]([O-])c1ccc(Cl)c(Cl)c1
inactive: [13]

CCCOCC(=Nc1ccc(Cl)cc1C(F)(F)F)n1ccnc1
active: [14] 31.2 µM | [15] 31.4 µM | [16] 34.8 µM | CD38, CD38 (gene 952) 23.7 µM | [17] 68.5 µM

COc1cc(-c2ccc(N)c(OC)c2)ccc1N
active: [19] 2.93 µM | [20] 4.3 µM | [21] 12.1 µM | [22] 19.8 µM | [23] 73 µM
inactive: [1] | [18] | CD38, CD38 (gene 952) | [22] | [24]
